Reference: PubChem BioAssay AID1963576 (National Center for Advancing Translational Sciences (NCATS), 2024)
Out of some 46,000 compounds screened, about 60 (0.1%) were called active. Inconclusive results (about 3%) are left out. Calls follow the shape of the dose curve; as a rule, active = well fitted inhibition curve with a large enough effect; inconclusive = small, poorly fitted or top-dose-only effect; inactive = no such curve, though single readings can be large or run the other way. This is one part of the list.

Experiment: Primary qHTS assay for Inhibitors of ovarian cancer metastasis using an organotypic tumor microenvironment (TME) model. Also: nearly all actives have a fitted effect of over 65% in size.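 As to activity change, negative = inhibition: plate controls were DMSO wells for no effect and tomatine positive control wells for full effect.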
Details: SKOV3ip1-GFP adhesion/invasion on 3D omental model, fluorescence; series mostly up to 45.8 µM; activity change, negative = inhibition: at the top concentration
In short: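 A 3D layer of primary human omental fibroblasts, mesothelial cells, fibronectin and collagen I, grown 48 hr, received SKOV3ip1-GFP cells in serum-free medium plus compounds at 0.36-46 umol/L. After 2 hr RT and 16 hr 37 C, fixed adherent GFP cells were counted; normalized to DMSO and tomatine.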

Activity change, negative = inhibition, inactive:
CSc1nc(C)cc(Nc2c(C)cc(C)cc2C)n1 -13.9%
COc1cccc(C(=O)Nc2ccc(Cl)c(-c3nc4ccccc4[nH]3)c2)c1 1.87%
COc1ccc2c(c1)CC(NC(=O)Nc1cc(Cl)ccc1OC)CO2 (stereo unspecified) -7.42%
Cc1ccccc1NC(=O)c1ccc2nc(Cc3ccccc3)oc2c1 14.6%
Cc1ccc(S(=O)(=O)c2cn(C)c3cc(N4CCCCCC4)c(F)cc3c2=O)cc1 7.16%
C=Cc1ccc(Cn2c(C(=O)O)c(CNCc3cccs3)c3ccc(C)cc32)cc1 4.51%
Cc1ccc(Cn2c(=O)n(-c3ccccc3)c(=O)c3ccc(C(=O)NCc4ccco4)cc32)cc1 -14.8%
Cn1c(SCc2ccc(F)cc2)nc2c([nH]c3ccccc32)c1=O -2.34%
CCOc1ccc(NC(=O)c2cc3c(-c4ccccc4F)nn(C)c3s2)cc1 -3.21%
COc1ccc2cc3cc(C(=O)N4CCN(c5ccc(C(C)=O)cc5)CC4)sc3nc2c1Cl 3.62%
COc1ccc(C(=O)Nc2cc(-c3cccc(C)c3)nn2-c2ccccc2)cc1 6.05%
CCN(CC)CCNC(=O)c1sc2nc3n(c(=O)c2c1C)CCCCC3 5%
COc1ccc(OCC2c3cc(OC)c(OC)cc3CCN2C(=O)c2ccc(F)cc2)cc1 (stereo unspecified) -26.6%
COc1cccc(C(=O)N(Cc2sccc2C)C2CCS(=O)(=O)C2)c1 (stereo unspecified) 9.42%
CCOC(=O)c1c(C)oc2nc(C)nc(N3CCN(c4ccc(C(C)=O)cc4)CC3)c12 -18%
Cc1cc(NC(=O)Cn2c(=O)nc(-c3ccccc3F)c3cc(Cl)ccc32)ccc1Br 15.2%
O=S(=O)(NCCc1csc2nc(-c3ccc(F)cc3)nn12)c1ccc(Br)cc1 -0.994%
O=S(=O)(NCc1nc2cccnc2n1Cc1ccc(F)cc1)c1ccc2c(c1)CCCC2 -1.24%
CCOC(=O)c1ccc(NC(=O)c2c(NCc3cccs3)sc3c2CCCCC3)cc1 7.1%
Cc1cccc(Cn2c(CN3CCC(C(=O)NCc4cccnc4)CC3)cc3ccccc32)c1 -22.8%
CCN1CCN(c2cc(C)c3cc(NC(=O)c4cccc(C(F)(F)F)c4)ccc3n2)CC1 4.55%
COc1cccc(CSc2nc3n(n2)C(c2cccs2)C(C(=O)Nc2ccccc2C)=C(C)N3)c1 (stereo unspecified) -9.07%
Cc1ccc(OCCn2cc(C(=O)C3CCCCC3)c3ccccc32)cc1 -12.7%
CCCCOC(=O)CSc1nnc(-c2ccccc2)o1 18.9%
CC(=O)Nc1nonc1-c1nnc(SCC(=O)Nc2cc(C)cc(C)c2)n1C -7.56%
Cc1ccc(C)c(N2CCN(C(=O)CN3CCSc4ccc(S(=O)(=O)N(C)C)cc43)CC2)c1 1.31%
COC(=O)c1ccc(Cl)cc1NC(=O)N1CCCn2nc(C)cc21 -5.76%
COc1nc(-c2ccc(C)cc2)ccc1-c1noc(-c2ccccc2Br)n1 -7.48%
COc1ccc(-c2oc3ncn4nc(-c5ccccc5Br)nc4c3c2-c2ccc(OC)cc2)cc1 1.21%
COc1cccc(NC(=O)/C(C#N)=C\c2cn(Cc3ccc(C)cc3)c3ccccc23)c1 -7.79%
Cc1oc2ncn(CC(C)C)c(=O)c2c1C(=O)N1CCN(c2ccc(F)cc2)CC1 -1.51%
O=C(CN1CCCN(Cc2ccc(Cl)cc2)S1(=O)=O)Nc1ccccc1F 4.55%
COc1cccc(NC(=O)c2oc3ccccc3c2NC(=O)c2ccc(C(F)(F)F)cc2)c1 4.12%
COc1cccc2c1Oc1ncccc1N(C(=O)CCC(=O)NCc1ccc(N(C)C)cc1)C2 -3.69%
Cc1ccc2[nH]c3c(=O)n(CC(=O)N(C)c4cc(Cl)ccc4C)ncc3c2c1 -1.59%
O=C1NC(=O)C(=Cc2cccc(C(F)(F)F)c2)S1 -9.2%
COc1ccccc1NC(=O)c1ccc2c(Cl)c3c(nc2c1)CCCC3 6.46%
COc1ccc(-n2c(=O)c3c4c(sc3n(Cc3ccccc3)c2=O)CN(C(C)=O)CC4)cc1OC -0.75%
CC(=O)OCc1cnc(C)c2oc(=O)c(C(=O)Nc3cccc(F)c3)cc12 5.39%
O=C(c1cc(=O)c2cc(Cl)ccc2o1)N(Cc1ccccc1)C1CCS(=O)(=O)C1 (stereo unspecified) -6.82%
COc1cc2[nH]c(=O)n(Cc3ccc(C(=O)NCc4ccccc4)cc3)c(=O)c2cc1OC -14.5%
CCCNC(=O)C1CCC(Cn2c(=O)c3sccc3n(Cc3ccccc3C)c2=O)CC1 (stereo unspecified) 0.731%
COc1ccc(Cl)cc1-n1nnc(-c2nc(-c3ccc4c(c3)OCO4)no2)c1C 10.7%
Nc1ncnc2c1c(-c1cccc(OCc3ccccc3)c1)cn2C1CC(CN2CCC2)C1 (stereo unspecified) 3.04%
COc1ccc(NC(=O)CSc2nc3nc(C)c(Cc4ccc(C)cc4)c(C)n3n2)cc1OC -2.69%

outcome, inactive:
COc1ccccc1C(=O)Nc1c(C(=O)N(CCN(C)C)Cc2ccco2)oc2ccccc12
O=C(CCSCc1cnn(-c2ccccc2)c1-n1cccc1)NCc1ccccc1F
CC(C)(C)OC(=O)N1CCC(c2c(C(=O)NCc3ccc(F)cc3)cnn2-c2ccc(F)cc2)CC1
Cc1ccc(NC(=O)Cn2c(=O)n(-c3ccc(Cl)c(Cl)c3)c(=O)c3c(C)c(C)sc32)c(C)c1
CCOC(=O)c1c(N)n(-c2ccc(Cl)c(Cl)c2)c2nc3ccccc3nc12
COc1cn(CC(=O)Nc2ccc(F)cc2)c(CN2CCCCC2)cc1=O
CC1=C(C(=O)Nc2ccccc2C)C(c2ccncc2)n2nc(SCc3ccccc3)nc2N1 (stereo unspecified)
CCOC(=O)c1ccc(NC(=O)CC2C(=O)N(c3cccc(OC)c3)C(=O)N2C2CCCCC2)cc1 (stereo unspecified)
O=c1c2cccnc2n(Cc2ccccc2F)c(=O)n1Cc1ccccc1Cl
COc1cc(OC)c(NC(=O)CCCn2nc(C)c3sc4ccccc4c3c2=O)cc1Cl
COc1ccccc1CNc1ccc(-c2nc(C)no2)cc1[N+](=O)[O-]
O=C(c1ccc2c(c1)N(Cc1cccc(Cl)c1)C(=O)c1ccccc1S2(=O)=O)N1CCCCC1
Cc1ccc(C)c(NC(=O)Cn2cc(C(=O)C3CCCCC3)c3ccccc32)c1
CCOc1ccc(NC(=O)N2CC=C(c3c[nH]c4ccccc34)CC2)cc1
CCOC(=O)c1c(C)[nH]c(C)c1S(=O)(=O)N1CCC(C(=O)N2CCN(c3ccc(Cl)cc3)CC2)CC1
COc1cc(Cl)c(C)cc1NC(=O)c1cc2ccc3cccnc3c2[nH]1
